Measured values published in the supplement of paper PMC11876631.
± gives the standard deviation of the averaged measurements. Laboratory Escherichia coli strains with one amino-acid change in an essential protein, pooled on minimal glucose agar with carbenicillin or gentamicin at twice the control MIC (plus kanamycin and chloramphenicol for the plasmids), 48 h. Fold change of barcode share against drug-free plates; higher = less susceptible. Active = above 20 in both replicates (the paper's putatively resistant). '<' = one read or none on drug, '>' = one read or none on a drug-free plate. Shares are relative, so most strains fall below 1 when a few take over. Listed are strains with at least 15 reads on both drug-free plates, and hits; most hits rest on fewer reference reads. Replicate rank correlation about 0.5. Edits are read from barcodes.

Molecular target: Escherichia coli (laboratory strain)
Assay: barcode share on antibiotic plates over drug-free plates; higher = less susceptible
Description: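 A pool of E. coli strains, each edited to carry one amino-acid change in an essential protein, was grown for 48 h on minimal glucose agar with or without antibiotic; strain barcodes were sequenced; mean of two replicates.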

[1] = antibiotic: carbenicillin, 2× MIC (3.1 µg/mL)
[2] = antibiotic: gentamicin, 2× MIC (MIC 0.45 µg/mL)

Protein	fold change of barcode share [1]	fold change of barcode share [2]
argA L172Q (protein) MVKERKTELVEGFRHSVPYINTHRGKTFVIMLGGEAIEHENFSSIVNDIGLLHSLGIRLVVVYGARPQIDANLAAHHHEPLYHKNIRVTDAKTLELVKQAAGTLQLDITARLSMSLNNTPLQGAHINVVSGNFIIAQPLGVDDGVDYCHSGRIRRIDEDAIHRQLDSGAIVQMGPVAVSVTGESFNLTSEEIATQLAIKLKAEKMIGFCSSQGVTNDDGDIVSELFPNEAQARVEAQEEKGDYNSGTVRFLRGAVKACRSGVRRCHLISYQEDGALLQELFSRDGIGTQIVMESAEQIRRATINDIGGILELIRPLEQQGILVRRSREQLEMEIDKFTIIQRDNTTIACAALYPFPEEKIGEMACVAVHPDYRSSSRGEVLLERIAAQAKQSGLSKLFVLTTRSIHWFQERGFTPVDIDLLPESKKQLYNYQRKSKVLMADLG	0.529 ± 0.1	–
ffh M105A (protein) MFDNLTDRLSRTLRNISGRGRLTEDNVKDTLREVRMALLEADVALPVVREFINRVKEKAVGHEVNKSLTPGQEFVKIVRNELVAAMGEENQTLNLAAQPPAVVLAAGLQGAGKTTSVGKLGKFLREKHKKKVLVVSADVYRPAAIKQLETLAEQVGVDFFPSDVGQKPVDIVNAALKEAKLKFYDVLLVDTAGRLHVDEAMMDEIKQVHASINPVETLFVVDAMTGQDAANTAKAFNEALPLTGVVLTKVDGDARGGAALSIRHITGKPIKFLGVGEKTEALEPFHPDRIASRILGMGDVLSLIEDIESKVDRAQAEKLASKLKKGDGFDLNDFLEQLRQMKNMGGMASLMGKLPGMGQIPDNVKSQMDDKVLVRMEAIINSMTMKERAKPEIIKGSRKRRIAAGCGMQVQDVNRLLKQFDDMQRMMKKMKKGGMAKMMRSMKGMMPPGFPGR	0.375 ± 0.0078	0.00416 ± 0.0026
ffh M105Q (protein) MFDNLTDRLSRTLRNISGRGRLTEDNVKDTLREVRMALLEADVALPVVREFINRVKEKAVGHEVNKSLTPGQEFVKIVRNELVAAMGEENQTLNLAAQPPAVVLQAGLQGAGKTTSVGKLGKFLREKHKKKVLVVSADVYRPAAIKQLETLAEQVGVDFFPSDVGQKPVDIVNAALKEAKLKFYDVLLVDTAGRLHVDEAMMDEIKQVHASINPVETLFVVDAMTGQDAANTAKAFNEALPLTGVVLTKVDGDARGGAALSIRHITGKPIKFLGVGEKTEALEPFHPDRIASRILGMGDVLSLIEDIESKVDRAQAEKLASKLKKGDGFDLNDFLEQLRQMKNMGGMASLMGKLPGMGQIPDNVKSQMDDKVLVRMEAIINSMTMKERAKPEIIKGSRKRRIAAGCGMQVQDVNRLLKQFDDMQRMMKKMKKGGMAKMMRSMKGMMPPGFPGR	0.364 ± 0.018	0.00726 ± 0.0056
ffh V48W (protein) MFDNLTDRLSRTLRNISGRGRLTEDNVKDTLREVRMALLEADVALPVWREFINRVKEKAVGHEVNKSLTPGQEFVKIVRNELVAAMGEENQTLNLAAQPPAVVLMAGLQGAGKTTSVGKLGKFLREKHKKKVLVVSADVYRPAAIKQLETLAEQVGVDFFPSDVGQKPVDIVNAALKEAKLKFYDVLLVDTAGRLHVDEAMMDEIKQVHASINPVETLFVVDAMTGQDAANTAKAFNEALPLTGVVLTKVDGDARGGAALSIRHITGKPIKFLGVGEKTEALEPFHPDRIASRILGMGDVLSLIEDIESKVDRAQAEKLASKLKKGDGFDLNDFLEQLRQMKNMGGMASLMGKLPGMGQIPDNVKSQMDDKVLVRMEAIINSMTMKERAKPEIIKGSRKRRIAAGCGMQVQDVNRLLKQFDDMQRMMKKMKKGGMAKMMRSMKGMMPPGFPGR	0.447 ± 0.14	0.0226 ± 0.0009
ffh M105W (protein) MFDNLTDRLSRTLRNISGRGRLTEDNVKDTLREVRMALLEADVALPVVREFINRVKEKAVGHEVNKSLTPGQEFVKIVRNELVAAMGEENQTLNLAAQPPAVVLWAGLQGAGKTTSVGKLGKFLREKHKKKVLVVSADVYRPAAIKQLETLAEQVGVDFFPSDVGQKPVDIVNAALKEAKLKFYDVLLVDTAGRLHVDEAMMDEIKQVHASINPVETLFVVDAMTGQDAANTAKAFNEALPLTGVVLTKVDGDARGGAALSIRHITGKPIKFLGVGEKTEALEPFHPDRIASRILGMGDVLSLIEDIESKVDRAQAEKLASKLKKGDGFDLNDFLEQLRQMKNMGGMASLMGKLPGMGQIPDNVKSQMDDKVLVRMEAIINSMTMKERAKPEIIKGSRKRRIAAGCGMQVQDVNRLLKQFDDMQRMMKKMKKGGMAKMMRSMKGMMPPGFPGR	0.35 ± 0.063	0.00374 ± 0.0041
ffh L188A (protein) MFDNLTDRLSRTLRNISGRGRLTEDNVKDTLREVRMALLEADVALPVVREFINRVKEKAVGHEVNKSLTPGQEFVKIVRNELVAAMGEENQTLNLAAQPPAVVLMAGLQGAGKTTSVGKLGKFLREKHKKKVLVVSADVYRPAAIKQLETLAEQVGVDFFPSDVGQKPVDIVNAALKEAKLKFYDVLAVDTAGRLHVDEAMMDEIKQVHASINPVETLFVVDAMTGQDAANTAKAFNEALPLTGVVLTKVDGDARGGAALSIRHITGKPIKFLGVGEKTEALEPFHPDRIASRILGMGDVLSLIEDIESKVDRAQAEKLASKLKKGDGFDLNDFLEQLRQMKNMGGMASLMGKLPGMGQIPDNVKSQMDDKVLVRMEAIINSMTMKERAKPEIIKGSRKRRIAAGCGMQVQDVNRLLKQFDDMQRMMKKMKKGGMAKMMRSMKGMMPPGFPGR	0.309 ± 0.081	< 0.00317
fbaA L335A (protein) MSKIFDFVKPGVITGDDVQKVFQVAKENNFALPAVNCVGTDSINAVLETAAKVKAPVIVQFSNGGASFIAGKGVKSDVPQGAAILGAISGAHHVHQMAEHYGVPVILHTDHCAKKLLPWIDGLLDAGEKHFAATGKPLFSSHMIDLSEESLQENIEICSKYLERMSKIGMTLEIELGCTGGEEDGVDNSHMDASALYTQPEDVDYAYTELSKISPRFTIAASFGNVHGVYKPGNVVLTPTILRDSQEYVSKKHNLPHNSLNFVFHGGSGSTAQEIKDSVSYGVVKMNIDTDTQWATWEGVLNYYKANEAYLQGQLGNPKGEDQPNKKYYDPRVWARAGQTSMIARLEKAFQELNAIDVL	0.273 ± 0.033	0.524 ± 0.72
fbaA L335W (protein) MSKIFDFVKPGVITGDDVQKVFQVAKENNFALPAVNCVGTDSINAVLETAAKVKAPVIVQFSNGGASFIAGKGVKSDVPQGAAILGAISGAHHVHQMAEHYGVPVILHTDHCAKKLLPWIDGLLDAGEKHFAATGKPLFSSHMIDLSEESLQENIEICSKYLERMSKIGMTLEIELGCTGGEEDGVDNSHMDASALYTQPEDVDYAYTELSKISPRFTIAASFGNVHGVYKPGNVVLTPTILRDSQEYVSKKHNLPHNSLNFVFHGGSGSTAQEIKDSVSYGVVKMNIDTDTQWATWEGVLNYYKANEAYLQGQLGNPKGEDQPNKKYYDPRVWWRAGQTSMIARLEKAFQELNAIDVL	0.266 ± 0.12	0.238 ± 0.32
fbaA I120A (protein) MSKIFDFVKPGVITGDDVQKVFQVAKENNFALPAVNCVGTDSINAVLETAAKVKAPVIVQFSNGGASFIAGKGVKSDVPQGAAILGAISGAHHVHQMAEHYGVPVILHTDHCAKKLLPWADGLLDAGEKHFAATGKPLFSSHMIDLSEESLQENIEICSKYLERMSKIGMTLEIELGCTGGEEDGVDNSHMDASALYTQPEDVDYAYTELSKISPRFTIAASFGNVHGVYKPGNVVLTPTILRDSQEYVSKKHNLPHNSLNFVFHGGSGSTAQEIKDSVSYGVVKMNIDTDTQWATWEGVLNYYKANEAYLQGQLGNPKGEDQPNKKYYDPRVWLRAGQTSMIARLEKAFQELNAIDVL	0.415 ± 0.16	0.0143 ± 0.01
fbaA L107A (protein) MSKIFDFVKPGVITGDDVQKVFQVAKENNFALPAVNCVGTDSINAVLETAAKVKAPVIVQFSNGGASFIAGKGVKSDVPQGAAILGAISGAHHVHQMAEHYGVPVIAHTDHCAKKLLPWIDGLLDAGEKHFAATGKPLFSSHMIDLSEESLQENIEICSKYLERMSKIGMTLEIELGCTGGEEDGVDNSHMDASALYTQPEDVDYAYTELSKISPRFTIAASFGNVHGVYKPGNVVLTPTILRDSQEYVSKKHNLPHNSLNFVFHGGSGSTAQEIKDSVSYGVVKMNIDTDTQWATWEGVLNYYKANEAYLQGQLGNPKGEDQPNKKYYDPRVWLRAGQTSMIARLEKAFQELNAIDVL	0.418 ± 0.16	< 0.0152
fbaA L335Q (protein) MSKIFDFVKPGVITGDDVQKVFQVAKENNFALPAVNCVGTDSINAVLETAAKVKAPVIVQFSNGGASFIAGKGVKSDVPQGAAILGAISGAHHVHQMAEHYGVPVILHTDHCAKKLLPWIDGLLDAGEKHFAATGKPLFSSHMIDLSEESLQENIEICSKYLERMSKIGMTLEIELGCTGGEEDGVDNSHMDASALYTQPEDVDYAYTELSKISPRFTIAASFGNVHGVYKPGNVVLTPTILRDSQEYVSKKHNLPHNSLNFVFHGGSGSTAQEIKDSVSYGVVKMNIDTDTQWATWEGVLNYYKANEAYLQGQLGNPKGEDQPNKKYYDPRVWQRAGQTSMIARLEKAFQELNAIDVL	0.762 ± 0.3	< 0.00697
fbaA L335P (protein) MSKIFDFVKPGVITGDDVQKVFQVAKENNFALPAVNCVGTDSINAVLETAAKVKAPVIVQFSNGGASFIAGKGVKSDVPQGAAILGAISGAHHVHQMAEHYGVPVILHTDHCAKKLLPWIDGLLDAGEKHFAATGKPLFSSHMIDLSEESLQENIEICSKYLERMSKIGMTLEIELGCTGGEEDGVDNSHMDASALYTQPEDVDYAYTELSKISPRFTIAASFGNVHGVYKPGNVVLTPTILRDSQEYVSKKHNLPHNSLNFVFHGGSGSTAQEIKDSVSYGVVKMNIDTDTQWATWEGVLNYYKANEAYLQGQLGNPKGEDQPNKKYYDPRVWPRAGQTSMIARLEKAFQELNAIDVL	0.649 ± 0.54	0.0181 ± 0.012
